# Laboratory results published in article PMC4336329 (PLoS ONE, 2015).
# Among all 310,000 compounds or so, about 2,200 (0.71%) showed an effect of 50% or more. Effects have a minus sign here. The list shows a part of the results.
# Target: human ether-à-go-go-related gene (hERG) potassium channel (human, UniProt Q12809)
# Assay: primary screen, population patch clamp on CHO cells stably expressing hERG
# human ether-à-go-go-related gene (hERG) potassium channel, sequence (Q12809 whole entry, looked up): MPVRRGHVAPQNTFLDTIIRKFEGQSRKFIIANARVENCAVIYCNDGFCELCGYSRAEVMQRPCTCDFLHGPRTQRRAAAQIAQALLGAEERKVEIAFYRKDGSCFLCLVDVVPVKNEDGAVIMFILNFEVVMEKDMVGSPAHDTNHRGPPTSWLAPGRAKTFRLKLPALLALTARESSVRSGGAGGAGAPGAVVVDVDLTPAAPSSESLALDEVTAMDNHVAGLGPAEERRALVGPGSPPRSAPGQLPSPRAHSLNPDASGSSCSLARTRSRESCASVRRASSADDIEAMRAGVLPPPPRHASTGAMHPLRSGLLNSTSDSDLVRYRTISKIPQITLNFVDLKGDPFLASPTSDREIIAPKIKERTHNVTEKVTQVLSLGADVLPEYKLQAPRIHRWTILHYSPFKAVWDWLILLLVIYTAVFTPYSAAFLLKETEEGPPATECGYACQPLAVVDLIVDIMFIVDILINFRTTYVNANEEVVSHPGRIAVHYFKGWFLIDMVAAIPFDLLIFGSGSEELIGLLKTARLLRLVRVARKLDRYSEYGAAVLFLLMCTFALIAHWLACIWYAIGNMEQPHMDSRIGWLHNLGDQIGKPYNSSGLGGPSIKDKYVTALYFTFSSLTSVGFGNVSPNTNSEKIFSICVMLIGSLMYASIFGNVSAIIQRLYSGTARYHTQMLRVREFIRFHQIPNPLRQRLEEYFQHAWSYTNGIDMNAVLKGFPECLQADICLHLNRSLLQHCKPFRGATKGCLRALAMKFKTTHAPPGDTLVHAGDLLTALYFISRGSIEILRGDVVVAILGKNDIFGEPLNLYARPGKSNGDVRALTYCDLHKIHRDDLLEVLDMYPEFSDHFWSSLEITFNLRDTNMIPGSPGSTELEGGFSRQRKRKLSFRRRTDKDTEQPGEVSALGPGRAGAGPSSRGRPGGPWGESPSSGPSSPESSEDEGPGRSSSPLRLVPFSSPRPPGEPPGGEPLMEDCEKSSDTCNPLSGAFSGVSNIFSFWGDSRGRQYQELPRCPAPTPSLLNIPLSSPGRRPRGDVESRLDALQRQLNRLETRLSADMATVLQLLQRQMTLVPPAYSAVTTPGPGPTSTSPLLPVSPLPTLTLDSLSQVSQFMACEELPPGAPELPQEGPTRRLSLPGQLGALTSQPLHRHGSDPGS
row,Compound,"hERG current change (%, negative = inhibition) at 1uM [%]"
1,Cc1ccc(C(=O)N2CCN(Cc3ccc4c(c3)OCO4)CC2)c(Cl)c1,10.5
2,COc1ccc(C(=O)Nc2ccc3ccccc3n2)c(OC)c1OC,17.3
3,CCCCN(CC)C(=S)Nc1ccc2nc(N3CCN(C)CC3)cc(C)c2c1,4.86
4,CCC(C)(C)NC(=O)C(c1ccccn1)N(C(=O)c1csnn1)C1CCCCC1 (centres unmarked),6.8
5,O=C(Nc1ccc(Cl)cc1)Nc1nnc(CSCc2ccc(Cl)cc2)s1,15.1
6,O=C(CN1C(=O)c2ccccc2C1=O)Nc1ccccc1F,-2.95
7,O=C(CCS(=O)(=O)Cc1ccccc1)Nc1ncc([N+](=O)[O-])s1,10.2
8,C=CCn1c(Cc2cccc3ccccc23)n[nH]c1=S,6.39
9,O=C1N=c2ccc([N+](=O)[O-])cc2=C1c1sc(=O)[nH]c1O,12.1
10,Cc1[nH]n(-c2ccccc2)c(=O)c1C=NC1CCCCCC1,9.97
11,Cc1cccc(C(=O)O/N=C(\N)c2ccccn2)c1,1.43
12,Cc1nn(C)cc1CNC(=O)C1C2CCC(C2)C1C(=O)O (centres unmarked),17.5
13,Cc1cccc(OCC(=O)Nc2cccc(C(=O)Nc3ccccc3C(=O)O)c2)c1,14.2
14,COc1cccc(CC(NC(C)=O)C(=O)NC2CCN(S(=O)(=O)c3ccc(NC(C)=O)cc3)CC2)c1 (centres unmarked),9.93
15,COc1ccc(OC)c(/C=C/C(=O)N(C)CC(=O)Nc2ccc(N3CCOCC3)cc2)c1,-0.518
16,N#Cc1ccc(CSc2nnc(-c3cccc(S(=O)(=O)N4CCCCC4)c3)o2)cc1,10.9
17,CCCCNC(=O)c1ccc(CS(=O)(=O)Cc2ccccc2F)o1,8.25
18,Cn1cccc1C(=O)NC(=O)COC(=O)c1cc(Cl)ccc1[N+](=O)[O-],10.8
19,CN1CCN(c2ccc([N+](=O)[O-])cc2C(=O)c2ccccc2)CC1,-17.5
20,CC(C)NC(=O)c1ccc(C2SCC(=O)N2Cc2ccccc2)cc1 (centres unmarked),8.98
21,O=C(O)c1cccnc1Sc1ccccc1,15
22,N#CCCn1cnc2c(=S)nc[nH]c21,1.34

row,Compound,"hERG current change (%, negative = inhibition) at 1uM [%]"
1,CCNc1nc2nonc2nc1NCC,-6.84
2,CCC1=C(OC(=O)N(CC)CC)N2C(=O)OC(=NCC3CC3)[C@]2(C)[C@H]2C1=CC[C@H]1C(=O)N(CC)C(=O)[C@H]12,16.9
3,COc1cccc(OCC(O)CN2CCN(CCN3C(=O)c4cccc5cccc(c45)C3=O)CC2)c1.Cl (centres unmarked),-18.3
4,CCNC(=O)COc1ccc(/C=N/NC(=O)c2cccnc2)cc1OC,25.3
5,CCn1ncc(C2=NOC(C(=O)Nc3cc(OC)c(Cl)cc3OC)C2)c1C (centres unmarked),-1.93
6,CCOc1cc(S(=O)(=O)NC2CC2)c(OCC)cc1-n1cnnn1,-7.47
7,CC(C)CC(=O)NC(c1ccccc1)c1c(O)ccc2ccccc12 (centres unmarked),14
8,O=C(O)C1CCCCC1C(=O)NCCCc1ccccc1 (centres unmarked),1.59
9,Cc1cccc(-n2nnc3cnn(C)c3c2=O)c1,7.4
10,CCCCN(CCCC)CCNC(=O)CN1C(=O)COc2ccc(S(=O)(=O)N3CCC(C)CC3)cc21,-28.6
11,CNC(=O)c1cc2cc(OC)ccc2n1CCN(Cc1ccccc1)Cc1ccccc1.Cl,11.6
12,O=C(/C(=N\Nc1ccccc1)Sc1nnnn1-c1ccccc1)c1ccccc1,10.1
13,CC(C)c1ccc(/C=N\NC(=O)c2ccc(Cn3cccn3)o2)cc1,-3.86
14,COc1ccc(CNC(=O)C2CCN(S(=O)(=O)N3CCCCC3)CC2)cc1,10.4
15,Cc1ccc(C)c(OCC(=O)N2CCN(C(=O)c3ccco3)CC2)c1,1.09
16,CN1CCCN(S(=O)(=O)c2cccc(Cl)c2Cl)CC1.Cl,5.98
17,COc1cccc(CNc2ccc([N+](=O)[O-])c(NCC(=O)O)n2)c1,12
18,Cc1nnc2sc(SCC(=O)Nc3nccs3)nn2c1=O,25.4
19,S=C(N/N=C/c1cccc2ccccc12)Nc1cccc(Cl)c1,11.3
20,COCCN1C(=O)/C(=C/c2ccc(N3CCCC3)cc2C)SC1=S,7.09
21,COC(=O)c1cc(C(=O)OC)[nH]n1,17.5
22,Cc1ccc(OC(=O)CCc2c(C)nc3ncnn3c2C)cc1,6.69

row,Compound,"hERG current change (%, negative = inhibition) at 1uM [%]"
1,N#C/C(=C/c1ccccc1OCc1ccc(F)cc1)c1ccc(C(=O)O)cc1,16.7
2,CN(C)CCC1CCN(c2cc(C#N)c(C#N)cc2[N+](=O)[O-])CC1,-5.76
3,O=C1CCc2cc(S(=O)(=O)NC(Cc3ccccc3)C(=O)NC3CCCC3)ccc2N1 (centres unmarked),15.3
4,C#CCOCCOCCOCCNc1nc(N2CCN(C(=O)[C@H]([C@@H](C)CC)n3cc([C@@H](N)CO)nn3)CC2)nc(N2CCN(C(=O)[C@H](CCCCN)n3cc([C@@H](N)CC(C)C)nn3)CC2)n1.Cl,6.17
5,CCC(=O)NCCNc1nc2cc(C)cc(C)c2cc1C#N,32.9
6,Cc1[nH][nH]c(=O)c1C(c1cc([N+](=O)[O-])ccc1O)c1c(C)[nH][nH]c1=O,4.75
7,COC(=O)C1=C(c2ccc(F)cc2OCc2ccccc2)C[C@@H]2CC[C@H]1N2C(=O)NCc1cccc(F)c1,22.8
8,O=C(N[C@@H](Cc1ccccc1)C(=O)O)c1c(F)c(F)c(F)c(F)c1F,9
9,C=CCn1c(SCc2nc3ccccc3[nH]2)nnc1-c1ccncc1,-1.13
10,Cc1cc(C)nc(NC(=O)NS(=O)(=O)N2CCCCCC2)n1,6.38
11,Cc1ccc(C(=O)NCCCC(=O)O)o1,3.19
12,COCCn1c(-c2cccs2)nc2nc3ccccc3nc21,9.75
13,CCCC[C@@H]1C[C@H]1[C@@H](NC(=O)c1ccccc1)c1ccccc1C(F)(F)F,8.14
14,COc1ccc(-c2cc(C(=O)Nc3c(C)nn(Cc4ccc(Cl)cc4)c3C)no2)cc1,-0.582
15,COc1ccccc1C(=O)N/N=C(\C)CC(=O)Nc1ccc(Nc2ccccc2)cc1,13.2
16,O=C(CC(NCCN1CCOCC1)C(=O)O)Nc1cccc(Cl)c1 (centres unmarked),21.5
17,Cc1ccccc1C(=O)NC(=S)Nc1ccc(N2CCOCC2)cc1,8.54
18,Cc1ccc(-n2ncc3c(NCCCN4CCOCC4)ncnc32)c(C)c1,3.5
19,O=C(Nc1cc(C(F)(F)F)ccc1N1CCOCC1)c1ccc(F)cc1,10.8
20,COC(=O)c1sc(NC(C)=O)c(C(=O)OC)c1C,3.6
21,CC(=O)C1=NN(c2ccccc2)C(c2cccs2)N1c1ccc(N(C)C)cc1 (centres unmarked),7.46
22,O=C(O)/C=C/C(=O)Nc1cccc(C(F)(F)F)c1,9.55

row,Compound,"hERG current change (%, negative = inhibition) at 1uM [%]"
1,O=C(CS(=O)(=O)c1cn(Cc2cccc(F)c2)c2ccccc12)N1CCCCC1,0.563
2,CCOC(=O)Cc1csc(NC(=O)/C=C/c2ccc(Br)o2)n1,-4.46
3,C=C1CCC[C@]2(C)C[C@H]3OC(=O)C(CN4CCOCC4)[C@H]3C[C@@H]12 (some centres unmarked),19.6
4,O=[N+]([O-])c1cc(S(=O)(=O)N2CCOCC2)ccc1OCc1cccc(Cl)c1,4.08
5,Cc1ccc(S(=O)(=O)NCC2CCC(C(=O)N3CCC4(CC3)OCCO4)CC2)cc1 (centres unmarked),0.834
6,CCc1ccc2nc(-c3cccc(C)c3)nc(SCC(=O)NCC3CCCO3)c2c1 (centres unmarked),-9.99
7,CC(C)C(NC(=O)c1ccccc1)C(=O)NC1CCCc2ccccc21 (centres unmarked),12.3
8,COCCCNC(=O)c1ccc(-c2nc3ccccc3nc2-c2ccccc2)cc1,8.01
9,Cc1cc(/C=C2/NC(=O)N(Cc3ccccc3F)C2=O)c(C)n1C(C)C,4.27
10,C1CN(c2nc3nonc3nc2N2CCSCC2)CCO1,6
11,CCOc1ccc(NC(=O)NC(=O)N(C(C)C)S(C)(=O)=O)cc1,14.7
12,Cn1nnc(NC(=O)c2ccc3ccccc3c2)n1,13.3
13,COc1ccc(N2C(=O)CS/C2=C\[N+](=O)[O-])cc1,11.7
14,CCN(CC)S(=O)(=O)c1cc([N+](=O)[O-])ccc1N1CCC(C(N)=O)CC1,-0.296
15,CC(C)COP(=O)(OCC(C)C)C(O)c1ccc(N(C)C)cc1 (centres unmarked),13.5
16,Cc1cc(C)c2nc(N3CCCN(C(=O)c4cnccn4)CC3)c(C#N)cc2c1,0.686
17,Cc1ccc2nc(N3CCN(C(=O)c4ccco4)CC3)c3nncn3c2c1,10.3
18,C/C(=N\Nc1ccc(Cl)c(C(=O)O)c1)c1ccc(N2CCOCC2)cc1,15.8
19,OCc1ccc(-c2nn(Cc3ccccc3)c3ccccc23)o1,7.57
20,Cc1ccc(/C=C/C(=O)Nc2ccc(O)c3c(=O)cc(-c4ccccc4Cl)oc23)cc1,11.7
